# PubChem BioAssay AID504466 (National Center for Advancing Translational Sciences (NCATS), 2011)
# In all, about 330,000 compounds went through this assay and about 4,200 (1.3%) were called active. This list was built around the results that the source calls inconclusive (neither active nor inactive); the mix of calls is not that of the screen. The call rests on the fitted dose curve; in most records, active means well fitted activation curve with a large enough effect; inconclusive means small, poorly fitted or top-dose-only effect; inactive means no such curve, though single readings can be large or run the other way. Potencies beside an inconclusive call are fits to weak or partial responses and may not hold up.
# Test: qHTS screen for small molecules that induce genotoxicity in human embryonic kidney (HEK293T) cells expressing luciferase-tagged ELG1; further: nearly all actives have a fitted effect of over 60% in size; on activity change, positive = activation: % of control where 0% means no effect
# Conditions: HEK293T ELG1-luciferase reporter, luminescence, 16 h; series mostly up to 46 µM; activity change, positive = activation: at the top concentration
# Procedure, shortened: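 Genotoxicity was scored as increased ELG1-luciferase reporter signal, measured by ONE-Glo luminescence (30 min, room temperature). Compound or vehicle exposure of the HEK293T reporter cells lasted 16 hr at 37°C.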
# Potency means the concentration at half of the fitted maximal effect; tags describe the fitted curve by direction and shape.
SMILES,Potency,"activity change, positive = activation"
CN(C)c1ccc(/C=N/OC(=O)Nc2ccccc2)cc1,"inconclusive: 3.66 µM [activator, partial curve, poor fit]",
O=C(CCC1CCCCC1)Nc1ccccc1O,active: 10.3 µM,
Cc1ccc2nc(NC(=O)c3cccs3)sc2c1,active: 0.259 µM,
Cc1ccccc1NC(=O)NCCN1C(=O)C2C3C=CC(C3)C2C1=O (stereo not given),"inconclusive: 0.231 µM [activator, single point]",
Cc1csc(-c2coc3cc(O)cc(C)c3c2=O)n1,active: 20.6 µM,
CC(C)c1cc(C(=O)Nc2cc(Br)ccc2O)no1,"inconclusive: 18.4 µM [activator, partial curve]",
COc1ccc(CSc2nc3ccccc3[nH]2)cc1,"inconclusive: 2.06 µM [activator, partial curve]",
COc1ccc(/C=C/C(=O)NC(=S)Nc2ccc(S(=O)(=O)Nc3cc(OC)ncn3)cc2)cc1,,inactive: 1.38%
CCCCOC(=O)Nc1ccc(C(=O)OC)cc1,"inconclusive: 16.4 µM [activator, partial curve]",
Cc1noc(C)c1S(=O)(=O)N1CCCN(C(=O)/C=C/c2ccccc2F)CC1,,inactive: -0.56%
O=C(Nc1nnc(SCc2ccc(F)cc2)s1)c1ccccn1,"inconclusive: 29.1 µM [activator, single point]",
COc1cccc(C(=O)Nc2cc(C(=O)NCCc3ccccc3)ccc2Cl)c1,"inconclusive: 12.6 µM [activator, single point]",
COc1ccc(C(=O)N=c2sccn2C)cc1,"inconclusive: 18.3 µM [activator, partial curve]",
Cc1cccc(C)c1N1CCN(c2ccc3nnc(C(F)(F)F)n3n2)CC1,"inconclusive: 14.6 µM [activator, partial curve, poor fit]",
CC(=O)N1N=C(c2ccc(C)cc2)CC1c1ccc2c(c1)OCO2 (stereo not given),"inconclusive: 20.6 µM [activator, single point]",
c1ccc2c(c1)CCc1c(-c3ccncc3)n[nH]c1-2,"inconclusive: 18.3 µM [activator, partial curve, poor fit]",
O=C(Nc1ccc2c(c1)OCO2)c1ccc2nc[nH]c2c1,active: 16.4 µM,
C[n+]1cc(-c2ccccc2)oc1-c1ccccc1,"inconclusive: 20.6 µM [activator, single point]",
O=C1C(C=NCc2ccccn2)=C(O)c2ccccc21,"inconclusive: 5.8 µM [activator, partial curve]",
COc1cc(-c2nn3c(-c4ccccc4)nnc3s2)cc(OC)c1OC,,inactive: -2.95%
CC(C)CC(=O)Nc1ccc(-c2cn3ccsc3n2)cc1,active: 1.16 µM,
Cc1c(C)n(Cc2ccccc2)c2ncnc(NCCO)c12,,inactive: 1.09%
Cc1cc(OCc2nc3ccccc3s2)ccc1N,active: 2.91 µM,
Cc1ccc2nc(-c3ccc(NC(=O)c4ccco4)cc3)[nH]c2c1,active: 2.06 µM,
Cc1ccc(-c2csc(Nc3ccccn3)n2)cc1,active: 0.82 µM,

SMILES,Potency,"activity change, positive = activation"
O=C(NCCc1ccccc1)/C(=N\O)c1ccccc1,"inconclusive: 20.6 µM [activator, single point]",
COc1ccc2sc(-c3ccc(SC)cc3)c(C#CCO)c2c1,,inactive: 0.0202%
CCOC(=O)Cc1csc(-n2sc3ccccc3c2=O)n1,"inconclusive: 31.6 µM [activator, single point]",
Cc1ccc(/C=N/Nc2nc3ccccc3s2)o1,active: 0.82 µM,
C/C(N)=C(/C#N)C(=O)CSc1ccccc1F,"inconclusive: 20.6 µM [activator, single point]",
O=C(N/N=C/c1ccccc1O)C1CC(=O)N(c2ccc(Cl)cc2)C1 (stereo not given),"inconclusive: 29.1 µM [activator, single point]",
CC(Cc1ccccc1)NC(=O)CCCN1C(=O)c2ccccc2C1=O (stereo not given),,inactive: 0.182%
CCN(Cc1ccccc1)S(=O)(=O)c1cc(C(=O)NC(C)C2CC3CCC2C3)ccc1OC (stereo not given),,inactive: -4.35%
Cc1cc(NC2CCCC2)n2ncc(-c3ccccc3)c2n1,active: 0.164 µM,
COc1ccc(OCc2cc(C(=O)N3CCCC(OC)C3)no2)c2ccccc12 (stereo not given),"inconclusive: 20.6 µM [activator, single point]",
O=C(OCC(=O)N1CCCC1)c1cc(=O)c2ccccc2o1,"inconclusive: 25.9 µM [activator, partial curve, poor fit]",
COc1ccc(/C=C/C(=O)Oc2cccc(/C=N/NC(=O)c3cccc(F)c3)c2)cc1,"inconclusive: 11.6 µM [activator, partial curve]",
COc1cccc(NC2SC(=O)N(c3ccccc3)C2=O)c1 (stereo not given),"inconclusive: 10.3 µM [activator, partial curve, poor fit]",
Cc1ccc(S(=O)(=O)NCc2ccc(C(=O)N3CCN(c4ccc([N+](=O)[O-])cc4)CC3)cc2)cc1,,inactive: -12.9%
N/C(=N\OC(=O)c1cccs1)c1ccccc1,"inconclusive: 23.1 µM [activator, partial curve]",
O=c1c(Cl)c(Nc2cccc(Cl)c2)cnn1-c1nc2ccccc2s1,"inconclusive: 2.59 µM [activator, full curve]",
Cc1nc(SCC(=O)c2cccs2)c2oc3ccccc3c2n1,"inconclusive: 2.82 µM [activator, single point]",
O=C(Nc1ccccc1F)c1ccc(-c2cccc([N+](=O)[O-])c2)o1,"inconclusive: 5.17 µM [activator, single point]",
CC(=O)Nc1ccc(NC(=O)Cn2c(-c3ccc(F)cc3)cnc2SCC(=O)Nc2c(C)cccc2C)cc1,"inconclusive: 16.4 µM [activator, partial curve, poor fit]",
COc1ccc(Cl)c2c1[nH]c1nc(SCc3ccccn3)nnc12,active: 20.6 µM,
O=C(N=Nc1c(O)[nH]c2ccccc12)c1ccco1,"inconclusive: 3.66 µM [activator, full curve, poor fit]",
Cc1ccc(C(=O)NNC(=O)Cc2ccccc2)cc1,"inconclusive: 18.4 µM [activator, partial curve]",
Cc1ccnc(NC(=O)C(C)n2cc([N+](=O)[O-])cn2)c1 (stereo not given),,inactive: -3.43%
O=C(COc1ccc(Cl)cc1Cl)Nc1cccnc1,"inconclusive: 2.31 µM [activator, partial curve]",
Cc1ccccc1OCc1nc(-c2ccc(Br)o2)no1,"inconclusive: 23.1 µM [activator, single point]",

SMILES,Potency,"activity change, positive = activation"
CSc1ncc(CO)n1Cc1ccccc1,,inactive: -0.488%
CCN1C(=S)SC(=O)C1=C1C=C(C)N(Cc2ccco2)C(C)=C1,active: 2.59 µM,
CC1Cc2cc(S(=O)(=O)N3CCC(C(=O)N(C)Cc4ccccc4)CC3)ccc2N1C(=O)C1CC1 (stereo not given),,inactive: -0.762% [at 9.26 µM]
O=C1c2sc3nc4n(c(=O)c3c2CCC1Br)CCCCC4 (stereo not given),"inconclusive: 20.6 µM [activator, single point]",
O=C1CC(Sc2nnc(-c3ccccc3)o2)C(=O)N1c1ccccc1 (stereo not given),"inconclusive: 29.1 µM [activator, single point]",
Cc1ccccc1NC(=O)N1CCc2ccccc2C1,"inconclusive: 16.4 µM [activator, partial curve, poor fit]",
Cc1ccc(NC(=O)c2ccc(OC(=O)COc3cccc(Cl)c3)cc2)cc1,"inconclusive: 16.4 µM [activator, partial curve]",
CC(=O)N/C(N)=N/c1nc(=O)c2ccccc2s1,active: 18.3 µM,
COC(CN(C)S(=O)(=O)c1cc2c3c(c1)CCN3C(=O)CC2)OC,,inactive: 4.54%
Cc1cc(Cl)ccc1OCC(=O)Nc1ccncc1,"inconclusive: 32.6 µM [activator, partial curve, poor fit]",
COc1cc(C)nc(N2CCC(C(=O)NC3CCCCC3)CC2)n1,"inconclusive: 32.6 µM [activator, partial curve, poor fit]",
CCOc1cc(NC(=S)NCCCN2CCOCC2)c(OCC)cc1NC(=O)c1ccccc1C,,inactive: -6.28%
CC(Sc1nnc2ccccn12)C(=O)Nc1ccc2c(c1)OCCO2 (stereo not given),"inconclusive: 18.3 µM [activator, partial curve, poor fit]",
Cc1nnc(SCC(=O)Nc2ccc(-c3nc4ccccc4s3)cc2)s1,active: 2.06 µM,
O=C(NCc1ccco1)c1cc(-c2cccs2)on1,"inconclusive: 16.4 µM [activator, partial curve]",
Cc1ccc2sc(N(CCCN(C)C)C(=O)c3ccc(S(=O)(=O)N4CCCCCC4)cc3)nc2c1C,"inconclusive: 23.1 µM [activator, partial curve, poor fit]",
Cn1ncc2c(=O)n(/N=C/c3ccccc3)cnc21,"inconclusive: 23.1 µM [activator, partial curve, poor fit]",
O=C(CC1(CC(=O)N2CCOCC2)CCCC1)Nc1ccccc1,,inactive: 1.88%
O=C(Nc1ccccc1)OCc1ccccn1,"inconclusive: 23.1 µM [activator, partial curve, poor fit]",
N#CCOC(=O)C1CCN(S(=O)(=O)c2ccc3c(c2)OCCO3)CC1,,inactive: 1.35%
Cc1[nH]c2ccccc2c1/C=N/Nc1nncn1N,"inconclusive: 13 µM [activator, partial curve, poor fit]",
CSc1nnc(-c2sc3cc(C(F)(F)F)cnc3c2-c2ccccc2)n1C,,inactive: 4.23%
CCCOc1cccc(-c2cc(C(=O)NNC(=S)NCC)c3ccccc3n2)c1,,inactive: 27%
CCC(=O)Nc1nc(-c2ccc3c(c2)OCCO3)cs1,active: 2.06 µM,
CN(CC(=O)Nc1ccc(S(N)(=O)=O)cc1)C1CCCCC1,"inconclusive: 29.1 µM [activator, partial curve, poor fit]",
